B1: 36867670_36873164_168_5pUTR_ENSMUSG00000029192_ENSMUST00000171385|mouse|control|control (ssRNA)
RNA: GGGAGUUCUACAGUCCGACGAUCCGGUCUUCCAGCCUUGUCUUCAUAUUCCAUGAACGCCAGGCCUCAGAGGCGCGUGGCCGGCGGCUCCAUGCCCAGUGAGUGGAGGCCAGCCUCGCUCCUGCCUCUGGACCACGGAUCUACCAACAGAGGAUUGAGCAUCA
B2: chr5:145543945:145543946:-_ENSG00000133706_ENST00000545646|hu_hu|hu_hu_hu_mus_True|48_98 (ssRNA)
RNA: GGGAGUUCUACAGUCCGACGAUCCUGAACGGCCAGUGGCGGGAAAUAAUCAAGCCAGUGCUCUGCUUCAGAAAACUUCACUAUGUCUUCAUCAGACAGCCCAAGGGAUUUCAUAAUGUCCCACUGGUACUUAGAAGAUCCUGCCAACAGAGGAUUGAGCAUCA
B3: chr12:493273:493274:-_ENSG00000073614_ENST00000399788|hu_mus|hu_hu_hu_mus_False|28_28 (ssRNA)
RNA: GGGAGUUCUACAGUCCGACGAUCUUUUCUCUCCACCACAGGGAUCUUCAAUGUAGAUCCUUGAAGUUCCCAAAAUUUUGCCAGUUGAUCCAAGAAGUCCAAUCUUACUCUGGUCAUUGCCUCAAGUUCAUUCAGGCGCUGGACCAACAGAGGAUUGAGCAUCA
B4: chr12:25362807:25362808:-_ENSG00000133703_ENST00000311936|hu_mus|motif|central (ssRNA)
RNA: GGGAGUUCUACAGUCCGACGAUCCUUCUUCUUCUUCCCAUCUUUGCUCAUCUUUUCUUUAUGUUUUCGAAUUUCUCGGACGGAUGUAUAGAAGGCAUCGUCAACACCCUGUCUUGUCUUUGCUGAGGUCUCAAUGAACGGAAUCAACAGAGGAUUGAGCAUCA
B5: chr4:144460044:144460045:+_ENSG00000153147_ENST00000283131|hu_mus|hu_hu_hu_mus_False|18_58 (ssRNA)
RNA: GGGAGUUCUACAGUCCGACGAUCACGGUCCAUAGCCUGAAGAUCAACUUGCGGAUUCCAAUCUGAGUCAUAUAAAAUUACUACAUCAGCAGUUGCAAGAUUGAUGCCCAGACCACCAGCACGCGUGCUUAGCAUAAAUACAAACAACAGAGGAUUGAGCAUCA
B6: chr14:66974463:66974464:+_ENSMUSG00000022044_ENSMUST00000074523|mus_hu|mus_mus_mus_hu_False|8_8 (ssRNA)
RNA: GGGAGUUCUACAGUCCGACGAUCUUGUAGGACGACUUAUUCAGGGGAUCGGCCAGGAAGCAGGAGCAGAACAAGGACACCAGCGGGAGCUCCUUCAUCUUCUCUUUGUAGGCAGCAAGGGUCAUGUUGGCUGGAAUUGGUGGCCAACAGAGGAUUGAGCAUCA
B7: chr14:94519448:94519449:-_ENSG00000089737_ENST00000330836|hu_hu|motif|central (ssRNA)
RNA: GGGAGUUCUACAGUCCGACGAUCAGAGUUGUGCAGGCAAGCCUGGAAGUUCCGAUACUCAGAUUUCUCAAUCUGUCGAGCGGAACGGAUUCGCUCCUUGACCACAUCCAUGUAUUUUGUCUGCACGGGGAACAGUGGGAUAUCCAACAGAGGAUUGAGCAUCA
B8: chr4:25749455:25749456:-_ENSG00000091490_ENST00000264868|hu_hu|hu_hu_hu_mus_False|28_38 (ssRNA)
RNA: GGGAGUUCUACAGUCCGACGAUCGCACUAUGACCUCUAGAAAAAUCCACAGGGGGAAAAAAUGUAAACCAAUGUACAAUGUUAUCGCCUUCCCUGUAUUUCCAGGCACAAACAAUUGGCUCCUUCUAGCUGCUGGAUUUGGGACAACAGAGGAUUGAGCAUCA
B9: chr19:37063429:37063430:+_ENSMUSG00000040565_ENSMUST00000099494|mus_hu|motif|central (ssRNA)
RNA: GGGAGUUCUACAGUCCGACGAUCCAUAGCAUCCCAGAGAUGUGGCAACUUCACUGCCAUUUCACCACCAAAAUGCUUUACGGUAGUUGUCAAAGCAAAUUCAGCUCCUCUCCGUUGUACCAGGUAAGGCUUCUGGGCCUCAUCCAACAGAGGAUUGAGCAUCA
B10: chr1:204375296:204375297:-_ENSG00000158615_ENST00000367188|hu_hu|motif|central (ssRNA)
RNA: GGGAGUUCUACAGUCCGACGAUCGCCAACUCAACAUUGCUUGAGAACAUUAAGUCCUUUGAAGCAUGUUCCCUGGAGUCGGUUAAACAUUCUUUCUCUGUGUUCAAAUGUCAAGCAAUAUCCAAUAGCAUCUUCUGUUUCUUGCAACAGAGGAUUGAGCAUCA
B11: chr10:110404880:110404881:-_ENSMUSG00000035798_ENSMUST00000041723|mus_mus|motif|central (ssRNA)
RNA: GGGAGUUCUACAGUCCGACGAUCGUUUUUGUGAUACUUGUCACCAAGGUUAACUGAAACAUUGAAUGUUAAAAGCAAUCGGGUUGGAUCCACACUAUGUGUUCUAUAAGCUGCCCACAUUAAAGGGGUCAUUCCAUUCUGAUCCAACAGAGGAUUGAGCAUCA
B12: 17230632_17270780_116_CDS_ENSG00000003987_ENST00000180173|human|control|control (ssRNA)
RNA: GGGAGUUCUACAGUCCGACGAUCUUCUUUUCUUGGGUCAGGUGAAUUUUCCACGAAUAUGACAUGGGUAGCCGUCAAAUACAAAGUACCUAGAGCUGCUUUUUUAGGAGACACUCGAUCUACCAAGCGGACAUUUUCAACCUUCAACAGAGGAUUGAGCAUCA
B13: 91492014_91492134_263_3pUTR_ENSMUSG00000024109_ENSMUST00000160844|mouse|control|control (ssRNA)
RNA: GGGAGUUCUACAGUCCGACGAUCGAUAAGGCGACUGCUGCUGCCUUUUUCCGAGGCGUCAGGCUUGAGCGUCUAUCUCCAAGAGUGAGGAAGGGAAGAACAUGGAACAGAGAGGAGCAGCAGGGGGAGCAGGAGGAGGAGAGGCAACAGAGGAUUGAGCAUCA
B14: chr4:76572280:76572281:-_ENSG00000138757_ENST00000395719|hu_hu|FALSE|FALSE (ssRNA)
RNA: GGGAGUUCUACAGUCCGACGAUCCUUUAGCUCAUUUUCAUCAAUAUCAUGUGGCAAGUUACCAACAAAAAGUUGAUGACUAUCUGGAUAGCGAAUUAUUCUACGGUUGUCAGAGUCAUUCUGUUCCAUAUCUCCUCUGCCUGGCAACAGAGGAUUGAGCAUCA
B15: chr7:135839730:135839731:+_ENSMUSG00000042105_ENSMUST00000151237|mus_mus|motif|central (ssRNA)
RNA: GGGAGUUCUACAGUCCGACGAUCACGCUGAUGUUUUGAAUUACAGUGGUUCUUUUAAUAGUCACAAGACUUGACACUGCGGAUAAAUAACAAAAUCGGAAUGCUUGUCAGAGUUUUAACAGACAUAAUGUUAAACUGAGAGUCCAACAGAGGAUUGAGCAUCA
B16: 42268982_42270895_591_3pUTR_ENSMUSG00000029861_ENSMUST00000143278|mouse|control|control (ssRNA)
RNA: GGGAGUUCUACAGUCCGACGAUCUUCCAUGACACCUGCUAGGAAACGUGCCUCCUUCUCGCCAUCACUGAGGUCAGAGUAGGCGUCUGUAUCCCUGCGCACAGCCUCAUGGCUAUGUUGUGGCUGAAUUGUUGGAGCCUUCCCCAACAGAGGAUUGAGCAUCA
B17: chr1:66486420:66486421:+_ENSMUSG00000015222_ENSMUST00000077355|mus_hu|FALSE|FALSE (ssRNA)
RNA: GGGAGUUCUACAGUCCGACGAUCUAAUGUAUUUUUUUUAAAUAGGGAGAGAACCCUGCUAACAUCUACUUUCACAUAUCUAAAAUUGCAACACCAAAGGGUGCAGGAGACACAGAUACUGUGAAUAAAGAAGUAUAAUAUUCACAACAGAGGAUUGAGCAUCA
B18: chr2:18084439:18084440:+_ENSMUSG00000026743_ENSMUST00000114669|mus_mus|FALSE|FALSE (ssRNA)
RNA: GGGAGUUCUACAGUCCGACGAUCUGAGCAGCGUAGGAGAUUUCUGAAGACUAGAGCUUGUUACACUUCCUGCAGCUGAUGCUACGGACGAUGUUGGUGAAGCAGAAGAAACUGAGAGGUGAGAAACAUUUUCUUGAUUUUUGUCAACAGAGGAUUGAGCAUCA
B19: chr11:77340908:77340909:-_ENSG00000074201_ENST00000525064|hu_hu|hu_hu_hu_mus_True|38_98 (ssRNA)
RNA: GGGAGUUCUACAGUCCGACGAUCGUUUGGAUCCCUGGAUAAUGCAUGUAAACUAAUGGUGGGGUAUUCCAGUGAGAAUCCUAAUCCCGAACCAUCUAACCAAGACAGGCGGCUCUCCGCGAUGUAAAGCGUGCCGGUGCCGAGCAACAGAGGAUUGAGCAUCA
B20: chr4:95690885:95690886:+_ENSMUSG00000028572_ENSMUST00000156910|mus_mus|mus_mus_mus_hu_False|58_68 (ssRNA)
RNA: GGGAGUUCUACAGUCCGACGAUCUUUAGAAAAUGUUAAAUACCAUGCUAAAAUAUUUUCAAAGGCUAGUCUUAUUUUACUAAAAGACACAGGCAAGCAGACACUACAAGAAUAUAUGAAAAUGAAACUCAACAAUAUAACUGUCAACAGAGGAUUGAGCAUCA
B21: chr2:172803269:172803270:+_ENSG00000128708_ENST00000264108|hu_hu|FALSE|FALSE (ssRNA)
RNA: GGGAGUUCUACAGUCCGACGAUCAAAAGCAGUUUCAUCAUCCCCAAAGAGUUGAUGGGUAUACUCAGGAAAGAAAGUUCUAAUGUCAUUUUCAAGAUCUUCAGGAAAACGAACUAAUUUUAGUUCAAUUGCUGUGUUGGUGUUCAACAGAGGAUUGAGCAUCA
B22: 59264645_59265857_1752_CDS_ENSMUSG00000026024_ENSMUST00000027178|mouse|control|control (ssRNA)
RNA: GGGAGUUCUACAGUCCGACGAUCCUCCAGGUGGAUUACCUCUUUACCAUCCAGACACUUGACACACAACGGCUGAAGCCUGGGCAGGACGUCGCCGUGCCCUAGCUGCCCUUCCUUGCCUUUCCCCCAGGUCCACACCUCUGUCAACAGAGGAUUGAGCAUCA

This is one part of the list.

The experiment deals with T1, UNK ZnF1-3 (human, UniProt Q9C0B0 31-174).
T1 sequence: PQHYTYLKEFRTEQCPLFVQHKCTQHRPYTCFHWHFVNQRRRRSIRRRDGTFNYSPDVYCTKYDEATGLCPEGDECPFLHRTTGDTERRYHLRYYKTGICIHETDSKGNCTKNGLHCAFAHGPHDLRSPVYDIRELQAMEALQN
Nature of the experiment: nsRBNS (natural sequence RNA bind-n-seq); RBNS binding buffer (assumed for nsRBNS): 25 mM Tris pH 7.5, 150 mM KCl, 3 mM MgCl2, 0.01% Triton X-100, 500 ug/ml BSA, 20 U/ml SUPERase-In, 4 C; UNK is unkempt and MSI1 is Musashi-1; names of the RNAs are library labels; protein concentration not given here; high values mean tight binding.
Consider B1, for which the binding signal was 0.317 enrichment R.

With B2, the binding signal was determined as 1.1 enrichment R.

Regarding B3, the binding signal was 0.979 enrichment R.

Regarding B4, the binding signal stood at 0.479 enrichment R.

The molecule B5 gave a binding signal of 1.46 enrichment R.

Turning to B6, the binding signal came out at 2.3 enrichment R.

Consider B7, for which the binding signal was found to be 0.42 enrichment R.

Molecule B8 displayed a binding signal of 1.07 enrichment R.

In turn, B9 came in with a binding signal of 0.79 enrichment R.

Molecule B10 showed a binding signal of 0.332 enrichment R.

B11 had a binding signal of 0.765 enrichment R.

Turning to B12, the binding signal came to 0.76 enrichment R.

Consider B13, for which the binding signal worked out at 1.94 enrichment R.

In the case of B14, the binding signal is 0.756 enrichment R.

B15 had a binding signal of 0.78 enrichment R.

In the case of B16, the binding signal worked out at 0.423 enrichment R.

On to B17, for which the binding signal amounted to 1.41 enrichment R.

With B18, the binding signal was found to be 1.39 enrichment R.

Turning to B19, the binding signal was determined as 1.09 enrichment R.

In turn, B20 gave a binding signal of 1.47 enrichment R.

B21 showed a binding signal of 0.682 enrichment R.

Molecule B22 returned a binding signal of 0.752 enrichment R.

These data come from PMC12136788.
